# Results published in the supplement of paper PMC3334620.
# The full ranking holds about 33,000 sequences; the median of “E-score (-0.5 to 0.5)” is about -0.035, and the highest 2% start at about 0.35. This is one part of the list.
# Target: T1, Pdr3 (UniProt P33200)
# T1 sequence: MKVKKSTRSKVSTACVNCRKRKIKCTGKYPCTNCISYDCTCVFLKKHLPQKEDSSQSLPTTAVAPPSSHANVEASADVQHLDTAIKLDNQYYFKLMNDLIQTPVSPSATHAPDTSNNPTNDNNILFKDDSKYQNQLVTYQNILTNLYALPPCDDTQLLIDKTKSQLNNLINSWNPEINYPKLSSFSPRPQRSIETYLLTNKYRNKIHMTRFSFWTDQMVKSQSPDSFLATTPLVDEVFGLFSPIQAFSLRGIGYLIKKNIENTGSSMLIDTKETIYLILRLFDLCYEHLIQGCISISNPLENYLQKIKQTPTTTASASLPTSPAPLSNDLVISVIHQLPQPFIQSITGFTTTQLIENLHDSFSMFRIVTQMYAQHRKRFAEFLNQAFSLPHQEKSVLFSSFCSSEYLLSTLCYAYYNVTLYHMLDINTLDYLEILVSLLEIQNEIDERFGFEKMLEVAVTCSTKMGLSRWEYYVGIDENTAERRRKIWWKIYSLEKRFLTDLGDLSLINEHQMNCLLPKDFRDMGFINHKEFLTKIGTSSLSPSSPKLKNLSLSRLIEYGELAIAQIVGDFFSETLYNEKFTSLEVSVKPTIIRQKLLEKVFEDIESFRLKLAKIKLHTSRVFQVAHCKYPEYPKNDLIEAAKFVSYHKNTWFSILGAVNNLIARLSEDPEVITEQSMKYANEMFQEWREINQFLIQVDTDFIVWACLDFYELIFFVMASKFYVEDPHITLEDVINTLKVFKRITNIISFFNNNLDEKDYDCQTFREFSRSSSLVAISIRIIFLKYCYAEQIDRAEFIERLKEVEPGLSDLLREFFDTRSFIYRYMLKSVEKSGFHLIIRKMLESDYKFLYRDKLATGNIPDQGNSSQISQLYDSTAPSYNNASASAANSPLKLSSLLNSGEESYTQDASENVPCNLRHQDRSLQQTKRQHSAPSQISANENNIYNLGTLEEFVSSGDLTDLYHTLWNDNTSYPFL
# Test: PBM E-score (8-mer binding enrichment) (E-score (-0.5 to 0.5)); higher = stronger / more preferred TF binding; most listed sequences are background and not binding sites
# Settings: protein concentration: 200 nM; construct: GST-full length
# Procedure, shortened: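 Each ungapped eight-base word and its reverse complement, pooled, received an E-score from the Universal PBM Analysis Suite. Underlying scans, normalised with masliner, recorded fluorescent anti-GST bound to GST-tagged yeast transcription factors. These were applied at about 100-200 nM to universal all-10-mer Agilent arrays double-stranded by primer extension.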
row,Sequence,PBM E-score
1,ACCGTAAG,1e-05
2,AAGTCTCG,-0.0989
3,CAAAAGTA,-0.0314
4,ACTAACTA,-0.159
5,CCGGAGGA,0.347
6,ATGGGCTA,0.0294
7,ACACGGCC,0.14
8,CCAACCAA,-0.0996
9,CGCTGAGC,-0.045
10,CCTACGAC,-0.217
11,TCGTAAAA,-0.0331
12,CTATGGCA,-0.222
13,TCATGCCA,-0.17
14,CAGCCCTC,-0.138
15,AGGCGGTG,-0.127
16,ACTAGCCG,0.105
17,CCTCTGCA,-0.0558
18,AAGGGTCG,-0.0133
19,GTAGTGAC,0.0971
20,CGCATCCA,-0.0631
21,AGGCATTA,-0.12
22,CATCGACG,0.0551
23,GGCTGTAA,-0.226
24,CGGGGTCC,0.189
25,GCTCGATA,-0.00112

row,Sequence,PBM E-score
1,AGATCTCA,0.0197
2,GAGAACGA,0.0602
3,AAACAACA,-0.149
4,CGATTATC,0.0984
5,ACGCCACC,-0.184
6,ATAATTTG,0.107
7,TCTGAAGA,-0.234
8,TCTCTGCA,-0.0846
9,CCACATCG,-0.0316
10,CGGGGATA,0.33
11,AAGTTGTA,-0.0735
12,AGACATCA,-0.0175
13,CAGGGTTA,-0.235
14,ACTGTCAC,-0.115
15,AGGTGTTA,-0.336
16,CGACGTCC,0.143
17,ACAATAAA,-0.0463
18,CCCGTTAA,0.17
19,GCTCGAGA,-0.203
20,ACGACGCT,-0.14
21,ATAGCTAC,-0.0621
22,AACATTGG,-0.171
23,GCCGTTGA,0.0969
24,GCTTATGA,-0.0958
25,GTTGTACA,-0.0334

row,Sequence,PBM E-score
1,GGCCATGA,0.0323
2,ATATAGAC,-0.0108
3,CACCGTAA,-0.0554
4,CCCCAGAC,-0.23
5,ACGCAACG,0.133
6,AAAACTCG,0.027
7,TCACTGAA,0.0661
8,CATCTCTC,0.182
9,AGTCGTTC,-0.167
10,AGATGGAT,-0.0516
11,ACTCAAAA,-0.0874
12,CACCTCGA,0.193
13,CCCAGGTC,-0.21
14,ATTCTTAC,-0.0923
15,CCTGCGCC,-0.00774
16,ATTAGAGG,-0.0767
17,CTGCAATC,0.0967
18,TAAGATGA,-0.272
19,ATCCGTAG,0.231
20,GACAATAC,0.165
21,CCTCGACA,-0.104
22,CTGTCAGA,-0.0126
23,CTACAGTA,-0.207
24,GGAAATAC,0.163
25,AGCGTTAC,-0.243

row,Sequence,PBM E-score
1,ATGGAGAA,0.0258
2,AGTCCGAC,0.0612
3,AGAACGGA,0.316
4,AAGAAGCA,0.0408
5,GCGCTACC,-0.174
6,TTATCAAA,-0.0369
7,TATGAACA,-0.127
8,GCGAGGCA,0.168
9,AAGACGCT,-0.218
10,ATTTAATA,0.182
11,AAATGGAA,0.0065
12,GTGAGGTA,-0.0646
13,CAGCCACC,0.0383
14,AGTAATAT,0.0891
15,CTCAGACC,-0.0888
16,CACAAAAG,0.0197
17,CAGGGCTC,-0.249
18,CGAGAAAA,-0.115
19,CTAATCGC,0.101
20,GGTGGGTA,0.033
21,CGCGACCA,0.244
22,CACGATTA,0.0766
23,ATCCTTCG,0.111
24,GATGGCAC,-0.0693
25,AGTCTGAC,-0.0823

row,Sequence,PBM E-score
1,AAAACTGA,-0.123
2,ATTGCGGA,0.328
3,CCGCAAGG,0.0699
4,CTAACGCA,-0.0349
5,GAGTCCAC,-0.0806
6,ACTCGAAT,-0.187
7,CGTAGCGA,0.127
8,AGATTATA,-0.0715
9,AAACACGA,-0.0368
10,ATTCTCCG,0.332
11,CACACGAG,-0.276
12,ATTTTGTA,0.0382
13,TCAGCGAA,-0.244
14,CAGCTTCA,-0.167
15,CAGGTAAC,-0.207
16,CGTATCTA,0.0613
17,ACAGAAAC,-0.057
18,CCCTCAAC,-0.133
19,CGATATCG,0.195
20,AGATGAGG,-0.175
21,AGGAGTGC,-0.0635
22,GAAACCTC,-0.0299
23,AAGAAAGA,-0.0237
24,CTAGAAAC,-0.227
25,GGTGCCGA,0.281

row,Sequence,PBM E-score
1,ACGGTCGG,0.123
2,TGATCGCA,-0.289
3,ATCTGACA,-0.306
4,AGCTCTCG,-0.0644
5,CCATGTAG,0.0164
6,AATGCCCT,-0.102
7,ATAGCTTC,-0.113
8,GATACTAC,0.0582
9,CTCGGGTC,0.279
10,AGGAGGCC,-0.236
11,GAATATAA,0.0103
12,CGGTAATA,0.275
13,CCTCTCCG,0.141
14,AGTGACAA,-0.147
15,AGTAGGCA,-0.0146
16,ACGACTCG,-0.137
17,TCACGACA,-0.0577
18,TTACGAAA,-0.0461
19,AACTATTG,-0.0889
20,AAGCCATT,-0.115
21,AGTAACCC,0.0458
22,CCCAAAGC,-0.164
23,CGAGCACA,0.135
24,GAATGTAA,0.197
25,CGCGCTAA,0.205

row,Sequence,PBM E-score
1,AGCCTTTG,-0.281
2,AACGGAAT,0.468
3,ACAGCCGA,0.0243
4,ACGTAGCA,-0.122
5,AAGGTTAA,-0.189
6,CGACGACC,0.164
7,CGCCTTCC,0.109
8,ATTCCAAC,-0.117
9,GCCCGGCC,0.272
10,AAACATTC,-0.162
11,GGCGGATA,0.287
12,AGATTAGG,-0.135
13,CGTGCGTA,-0.0334
14,GCCAACCA,-0.0867
15,AGCCGGAA,0.438
16,CATTAGCA,-0.203
17,TGACCTAA,-0.061
18,AGGTGACT,-0.168
19,CTTTCCGC,0.384
20,CCACATTC,0.0586
21,GCAGATCC,0.107
22,AGGGGGCC,-0.238
